The supplement of paper PMC10369915
This is one part of the list. Rule as the data show it: active = 3.2 or more and inactive = the rest. Only a few entries rise above the background.

These binders were tested against SHP2 C-SH2 domain E139D (assay: enrichment score (SH2-bound / input frequency) (ratio); bacterial display of known human phosphotyrosine sites (pTyr-Var adds point mutants) read by sequencing; higher = stronger binding; tyrosines were phosphorylated by kinases first). Conditions: peptide library: pTyr-Var.
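Also: displayed peptides selected on beads carrying the immobilized SH2 domain, with library peptides lacking any tyrosine serving as negative controls.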

| Binder | enrichment score |
| --- | --- |
| THPFPYLSLEI [MLH1_Y293_L292P] | inactive: 1.55 |
| FLELNYKEDEF [MME_Y502_YF] | inactive: 0.983 |
| ATHRSYDSDNP [MMUT_Y146_G145S] | inactive: 0.563 |
| THPFLYLSLEI [MLH1_Y293] | inactive: 1.92 |
| HLWRIYFDITD [MMP27_Y307_YF] | inactive: 1.3 |
| ADGLEYSRTGL [MMUT_Y287] | inactive: 0.317 |
| KTVQDYLKKFF [MMP8_Y36_E38K_YF] | inactive: 0.812 |
| ADGLEYPRTGL [MMUT_Y287_S288P] | inactive: 0.658 |
| QELRRYLKSGV [MICA_Y194] | inactive: 0.507 |
| HLELNYKEDEY [MME_Y502_Y497H] | inactive: 0.836 |
| QVQQIYSDSDL [MIB1_Y376_R371Q] | inactive: 0.697 |
| ATHRGYDLDNP [MMUT_Y146_S148L] | inactive: 0.658 |
| LGRTRYQHVTG [MIPEP_Y510] | inactive: 0.572 |
| ADGLEYSRTEL [MMUT_Y287_G291E] | inactive: 0.467 |
| KYLENYYDLEK [MMP3_Y41_K45E] | inactive: 1.4 |
| GDPVQYNRTTD [MLPH_Y454] | inactive: 0.502 |
| FLENFYDLEKD [MMP3_Y42_K45E_YF] | inactive: 1.52 |
| YLENYYDLKKD [MMP3_Y42] | inactive: 1.26 |
| ATHRGYDSDNP [MMUT_Y146] | inactive: 0.522 |

Each binder was assayed against SHP2 C-SH2 domain wild-type in the same assay as above. Conditions: peptide library: pTyr-Var.

| Binder | enrichment score |
| --- | --- |
| THPFPYLSLEI [MLH1_Y293_L292P] | inactive: 1.15 |
| FLELNYKEDEF [MME_Y502_YF] | inactive: 1.2 |
| ATHRSYDSDNP [MMUT_Y146_G145S] | inactive: 0.483 |
| THPFLYLSLEI [MLH1_Y293] | inactive: 2.54 |
| HLWRIYFDITD [MMP27_Y307_YF] | inactive: 1.74 |
| ADGLEYSRTGL [MMUT_Y287] | inactive: 0.388 |
| KTVQDYLKKFF [MMP8_Y36_E38K_YF] | inactive: 0.634 |
| ADGLEYPRTGL [MMUT_Y287_S288P] | inactive: 0.782 |
| QELRRYLKSGV [MICA_Y194] | inactive: 0.505 |
| HLELNYKEDEY [MME_Y502_Y497H] | inactive: 0.841 |
| QVQQIYSDSDL [MIB1_Y376_R371Q] | inactive: 0.863 |
| ATHRGYDLDNP [MMUT_Y146_S148L] | inactive: 0.768 |
| LGRTRYQHVTG [MIPEP_Y510] | inactive: 0.343 |
| ADGLEYSRTEL [MMUT_Y287_G291E] | inactive: 0.548 |
| KYLENYYDLEK [MMP3_Y41_K45E] | inactive: 1.2 |
| GDPVQYNRTTD [MLPH_Y454] | inactive: 0.576 |
| FLENFYDLEKD [MMP3_Y42_K45E_YF] | inactive: 1.18 |
| YLENYYDLKKD [MMP3_Y42] | inactive: 1.28 |
| ATHRGYDSDNP [MMUT_Y146] | inactive: 0.523 |

These binders were tested against SHP2 N-SH2 domain L43F in the same assay as above. Conditions: peptide library: pTyr-Var.

| Binder | enrichment score |
| --- | --- |
| THPFPYLSLEI [MLH1_Y293_L292P] | active: 3.23 |
| FLELNYKEDEF [MME_Y502_YF] | inactive: 1.22 |
| ATHRSYDSDNP [MMUT_Y146_G145S] | inactive: 0.537 |
| THPFLYLSLEI [MLH1_Y293] | inactive: 2.19 |
| HLWRIYFDITD [MMP27_Y307_YF] | inactive: 1.23 |
| ADGLEYSRTGL [MMUT_Y287] | inactive: 0.308 |
| KTVQDYLKKFF [MMP8_Y36_E38K_YF] | inactive: 0.785 |
| ADGLEYPRTGL [MMUT_Y287_S288P] | inactive: 0.736 |
| QELRRYLKSGV [MICA_Y194] | inactive: 0.479 |
| HLELNYKEDEY [MME_Y502_Y497H] | inactive: 0.639 |
| QVQQIYSDSDL [MIB1_Y376_R371Q] | inactive: 0.775 |
| ATHRGYDLDNP [MMUT_Y146_S148L] | inactive: 0.741 |
| LGRTRYQHVTG [MIPEP_Y510] | inactive: 0.526 |
| ADGLEYSRTEL [MMUT_Y287_G291E] | inactive: 0.569 |
| KYLENYYDLEK [MMP3_Y41_K45E] | inactive: 1.6 |
| GDPVQYNRTTD [MLPH_Y454] | inactive: 0.501 |
| FLENFYDLEKD [MMP3_Y42_K45E_YF] | inactive: 1.37 |
| YLENYYDLKKD [MMP3_Y42] | inactive: 1.18 |
| ATHRGYDSDNP [MMUT_Y146] | inactive: 0.497 |

The binders below were run against SHP2 N-SH2 domain T42A in the same assay as above. Conditions: peptide library: pTyr-Var.

| Binder | enrichment score |
| --- | --- |
| THPFPYLSLEI [MLH1_Y293_L292P] | active: 8.62 |
| FLELNYKEDEF [MME_Y502_YF] | inactive: 0.853 |
| ATHRSYDSDNP [MMUT_Y146_G145S] | inactive: 0.5 |
| THPFLYLSLEI [MLH1_Y293] | inactive: 1.78 |
| HLWRIYFDITD [MMP27_Y307_YF] | inactive: 1.28 |
| ADGLEYSRTGL [MMUT_Y287] | inactive: 0.489 |
| KTVQDYLKKFF [MMP8_Y36_E38K_YF] | inactive: 0.958 |
| ADGLEYPRTGL [MMUT_Y287_S288P] | inactive: 0.559 |
| QELRRYLKSGV [MICA_Y194] | inactive: 0.576 |
| HLELNYKEDEY [MME_Y502_Y497H] | inactive: 0.662 |
| QVQQIYSDSDL [MIB1_Y376_R371Q] | inactive: 0.789 |
| ATHRGYDLDNP [MMUT_Y146_S148L] | inactive: 0.652 |
| LGRTRYQHVTG [MIPEP_Y510] | inactive: 0.445 |
| ADGLEYSRTEL [MMUT_Y287_G291E] | inactive: 0.464 |
| KYLENYYDLEK [MMP3_Y41_K45E] | inactive: 0.953 |
| GDPVQYNRTTD [MLPH_Y454] | inactive: 0.485 |
| FLENFYDLEKD [MMP3_Y42_K45E_YF] | inactive: 1.03 |
| YLENYYDLKKD [MMP3_Y42] | inactive: 1.46 |
| ATHRGYDSDNP [MMUT_Y146] | inactive: 0.472 |

The binders below were run against SHP2 N-SH2 domain T52S in the same assay as above. Conditions: peptide library: pTyr-Var.

| Binder | enrichment score |
| --- | --- |
| THPFPYLSLEI [MLH1_Y293_L292P] | active: 3.99 |
| FLELNYKEDEF [MME_Y502_YF] | inactive: 0.951 |
| ATHRSYDSDNP [MMUT_Y146_G145S] | inactive: 0.436 |
| THPFLYLSLEI [MLH1_Y293] | inactive: 1.79 |
| HLWRIYFDITD [MMP27_Y307_YF] | inactive: 1.61 |
| ADGLEYSRTGL [MMUT_Y287] | inactive: 0.454 |
| KTVQDYLKKFF [MMP8_Y36_E38K_YF] | inactive: 0.807 |
| ADGLEYPRTGL [MMUT_Y287_S288P] | inactive: 0.59 |
| QELRRYLKSGV [MICA_Y194] | inactive: 0.434 |
| HLELNYKEDEY [MME_Y502_Y497H] | inactive: 0.81 |
| QVQQIYSDSDL [MIB1_Y376_R371Q] | inactive: 0.806 |
| ATHRGYDLDNP [MMUT_Y146_S148L] | inactive: 0.598 |
| LGRTRYQHVTG [MIPEP_Y510] | inactive: 0.465 |
| ADGLEYSRTEL [MMUT_Y287_G291E] | inactive: 0.523 |
| KYLENYYDLEK [MMP3_Y41_K45E] | inactive: 1.05 |
| GDPVQYNRTTD [MLPH_Y454] | inactive: 0.563 |
| FLENFYDLEKD [MMP3_Y42_K45E_YF] | inactive: 1.37 |
| YLENYYDLKKD [MMP3_Y42] | inactive: 1.31 |
| ATHRGYDSDNP [MMUT_Y146] | inactive: 0.477 |

These binders were tested against SHP2 N-SH2 domain wild-type in the same assay as above. Conditions: peptide library: pTyr-Var.

| Binder | enrichment score |
| --- | --- |
| THPFPYLSLEI [MLH1_Y293_L292P] | inactive: 1.43 |
| FLELNYKEDEF [MME_Y502_YF] | inactive: 0.909 |
| ATHRSYDSDNP [MMUT_Y146_G145S] | inactive: 0.588 |
| THPFLYLSLEI [MLH1_Y293] | inactive: 2.96 |
| HLWRIYFDITD [MMP27_Y307_YF] | inactive: 1.92 |
| ADGLEYSRTGL [MMUT_Y287] | inactive: 0.435 |
| KTVQDYLKKFF [MMP8_Y36_E38K_YF] | inactive: 0.665 |
| ADGLEYPRTGL [MMUT_Y287_S288P] | inactive: 0.685 |
| QELRRYLKSGV [MICA_Y194] | inactive: 0.635 |
| HLELNYKEDEY [MME_Y502_Y497H] | inactive: 0.854 |
| QVQQIYSDSDL [MIB1_Y376_R371Q] | inactive: 0.762 |
| ATHRGYDLDNP [MMUT_Y146_S148L] | inactive: 0.937 |
| LGRTRYQHVTG [MIPEP_Y510] | inactive: 0.475 |
| ADGLEYSRTEL [MMUT_Y287_G291E] | inactive: 0.633 |
| KYLENYYDLEK [MMP3_Y41_K45E] | inactive: 1.51 |
| GDPVQYNRTTD [MLPH_Y454] | inactive: 0.833 |
| FLENFYDLEKD [MMP3_Y42_K45E_YF] | inactive: 1.43 |
| YLENYYDLKKD [MMP3_Y42] | inactive: 0.992 |
| ATHRGYDSDNP [MMUT_Y146] | inactive: 0.583 |
